± gives the standard deviation of the averaged measurements. The list shows a part of the results.

The subject of the test is PfAP2-G AP2 domain (GST-tagged). Kind of test: gcPBM binding intensity (ln(normalized median fluorescence intensity)); higher = stronger DNA binding. Summed up:
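The highest Masliner-normalised natural-log median intensity across replicate spots of either probe orientation is reported as binding intensity. GST-tagged P. falciparum DNA-binding domains expressed in E. coli were applied for 1 h to an Agilent 4 × 180k array of primer-extended double-stranded 36-bp intergenic genomic probes plus negative controls, and bound protein was detected with Alexa488 anti-GST antibody and scanned at 488 nm.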
Turning to “TTTTTTTTTAAATATACACACACATTTATACATATA [CACACA_site9122]”, the “gcPBM binding intensity (ln)” value was 10 ± 0.14. The same measure for “TTTGGAATATAATATTGTACATATTATATATATATA [XGTACX_site3187]”: 11 ± 0.7; for “TTCTATTATGTGACTCAATTCTTCATGGGTGTATAA [TGCATGCA_negctrl_site140]”: 10.3 ± 0.18; for “AATATATATAACGTTGGTACACAAAAATTATTAAAT [XGTACX_site8572]”: 11.2 ± 0.66. For “TTATTTATTTTTATATGTACACAAAAAAAAAAAAAA [XGTACX_site1459]”, the “gcPBM binding intensity (ln)” value was determined as 11.5 ± 1.1. Take “TTCTCAAATATAATAAAATTATAAAGTGACCTAACT [GTGCAC_negctrl_site493]”: the “gcPBM binding intensity (ln)” value was 10.2 ± 0.36. The same measure for “TAATGGATTATACGTGCACACATATATACAAATAAA [CACACA_site8116]”: 10.6 ± 0.52; for “CCTCATCCACTATGCACACAAAAAAGAAATACACTA [CACACA_site3422]”: 10.5 ± 0.47; for “TTTTTTTTTTTTTTAACACACATATATATATTTTTC [CACACA_site1922]”: 9.74 ± 0.28. The same measure for “TATATTTTACTCTTCACACATATACTCAATTTATAT [CACACA_site5357]”: 10.3 ± 0.13; for “AAAAGAAAAAGAAAAACACACATAAATATAAATATA [CACACA_site1879]”: 9.55 ± 0.16; for “CATATTTGGAAACACACACACATATTTATATATATA [CACACA_site3569]”: 10.1 ± 0.23. Under “AAAATTTTCTTTTTATGTACACATAATTTTACCGGA [XGTACX_site5276]” stands 11.4 ± 0.73; under “AAAACAATAATATACTGTACATATATATAATAACAT [XGTACX_site6188]”, 11.1 ± 0.6. As to “CAATATTTTTTATAGGGTACAAAAGATAAAAAAAAA [XGTACX_site6298]”, the “gcPBM binding intensity (ln)” value came to 11.2 ± 0.69.

For the sequence “AAATTCAGGTTATATTTTAATTTTTTTTTGTTTTTT [CACACA_negctrl_site924]”, the “gcPBM binding intensity (ln)” value came to 9.49 ± 0.2.

For the sequence “CATACACATACACATACACACGCATAGAAACATACG [CACACA_site8666]”, the “gcPBM binding intensity (ln)” value was found to be 10.4 ± 0.26. The same measure for “AATTTTTCATCAAGTTGTACAATTATTTGTTTGTTT [XGTACX_site3113]”: 11.3 ± 0.73. The same measure for “TTCTTTTTAATTTATTTTTTCTTATAACAAGAAAAC [CACACA_negctrl_site201]”: 10 ± 0.071; for “TGCTAATAATTATTTGTTTAGCAACAAAAAAAAAAA [CACACA_negctrl_site1541]”: 9.63 ± 0.22; for “TAATTAAAAAATAAAAAAAAAAAAAATTAAAACAAA [CACACA_negctrl_site500]”: 9.38 ± 0.16.

Turning to “GTACATACATAAAACACACACATATATATATATATA [CACACA_site1826]”, the “gcPBM binding intensity (ln)” value is 10.7 ± 0.33.

For the sequence “AAAAAAAAAAAAAAAACATGCAAAATAATATATATA [TGCATGCA_site68]”, the “gcPBM binding intensity (ln)” value was 10.2 ± 0.27. The same measure for “AGAAAAGGACATATATGTACTTATCAATATAGAAAC [XGTACX_site1042]”: 11.4 ± 0.87. Under “TTCTTTTCTTTTTTCTTTTTTTTTTTCTTTTCTTTT [GTGCAC_negctrl_site630]” stands 9.66 ± 0.16. The same measure for “ATAAAATGAAATATATGTACGCATCACTTGTTGAAC [XGTACX_site4530]”: 11.4 ± 0.79. For the sequence “TCACATATGTTCCATTGTACTTGTAGTAATTTTTTC [XGTACX_site6473]”, the “gcPBM binding intensity (ln)” value is 11.1 ± 0.66. The same measure for “GTAATATGTATCCATACACACATACATTTTATTTGC [CACACA_site4640]”: 10.3 ± 0.23. Under “TGATCAATGGATTTAACACACAAAAAAAAAAAAAAA [CACACA_site3845]” stands 9.7 ± 0.28; under “TTTTGTTTTAAAAGTACACACTTTTAATTAGATTTC [CACACA_site4788]”, 11.5 ± 1. Under “AAAATACACAACATATATATATATATATATATATAT [XGTACX_negctrl_site21]” stands 9.86 ± 0.31. Regarding “TTTTTTTTCTTCAAGCGTACTTATTTGTAGAAAAAA [XGTACX_site1728]”, the “gcPBM binding intensity (ln)” value came to 11.2 ± 0.96. The same measure for “ATATGTGGAAATAGAGCACACATATATATAATATAT [CACACA_site8194]”: 10.1 ± 0.13; for “TATGTATATATATAAAGTACGCAAATTTATAATAAG [XGTACX_site8744]”: 11.5 ± 0.98; for “ATTTATTTTTTACATTGTACATATTTATTCCTTTTA [XGTACX_site8028]”: 11.1 ± 0.51.

Turning to “TATAACATTTTTTTCAAAATAGCTTTAGAAATAAAG [CACACA_negctrl_site718]”, the “gcPBM binding intensity (ln)” value came to 9.62 ± 0.028. The same measure for “TTATTTTCAAAATGTTGTACACACAAAAAAAAAAAA [XGTACX_site3151]”: 11.4 ± 0.93; for “TTTTTTTTTTTTTTTGCATGCAGGTTTTTACCCCTT [TGCATGCA_site381]”: 9.84 ± 0.51; for “TATATATATATATACACACACACATATATATATATA [CACACA_site774]”: 10.3 ± 0.76. Regarding CCCATTTAATATTGAGTGCATTTAAATAAATGTATT, the “gcPBM binding intensity (ln)” value was found to be 10.2 ± 0.32. The same measure for “TTTTACAAAGTATGATGTACAAGTATATATAAATAT [XGTACX_site2072]”: 11.1 ± 0.72. In the case of “ACTAACATATATTCAACACACATATACCTTCAACCC [CACACA_site3011]”, the “gcPBM binding intensity (ln)” value was 9.98 ± 0.014. As for “AAAAAAAAGAATTTACGTACTTATTATTTATATTTT [XGTACX_site5701]”, the “gcPBM binding intensity (ln)” value turned out to be 11.2 ± 0.73. With “ACTTTTTATTTTTTACTATATATATATATATATATG [TGCATGCA_negctrl_site463]”, the “gcPBM binding intensity (ln)” value was found to be 10.11 ± 0.099. The same measure for “TACATGAATAAACTTACACACACCCATGCATACATA [CACACA_site97]”: 10.15 ± 0.099; for “TGAAAAGGAAAATTTTGTACATATACATCAAGGATA [XGTACX_site656]”: 10.9 ± 0.38. Under “AACATAAGTAAGAATACATGCGGAAATTATATAGAA [TGCATGCA_site112]” stands 9.985 ± 0.021; under “TATAAATTTAAAATGACACACACTAAAGTTATTTAA [CACACA_site6700]”, 10.1 ± 0.26. The same measure for “TAAATATTATAAATGATACACACTTAAAATACTCAC [CACACA_site2710]”: 10.1 ± 0.18. “TCCCTTAAAATGATATGTACATAAAAATAAAAAAAA [XGTACX_site836]”: the “gcPBM binding intensity (ln)” value came out at 11.4 ± 0.88. Consider “CATATATATATATATATATATATATTTATTTATTTA [TGCATGCA_negctrl_site165]”, for which the “gcPBM binding intensity (ln)” value turned out to be 9.77 ± 0.32.

Take GTCATCAAGTATTAAGTGCATTAAAAATAAAATATA: the “gcPBM binding intensity (ln)” value was 10.2 ± 0.34.

Regarding “TAAGGACTAATATTTGAACACACATATAATATATAC [CACACA_site9325]”, the “gcPBM binding intensity (ln)” value stood at 10.1 ± 0.078.

Take “TATATATTTGTTCACACACACACAAAAAAAAAAAAA [CACACA_site2475]”: the “gcPBM binding intensity (ln)” value turned out to be 10.2 ± 0.7. Under “TTAAAAGAAAATAACACACACAAAAAAAAAAAAAAA [CACACA_site2117]” stands 9.79 ± 0.42. Under “GTATATAATATTAGTGCACACACAAAAATGTACTAA [CACACA_site8112]” stands 11 ± 0.65.
